# Experimental data taken from PubChem BioAssay AID1347430 (National Center for Advancing Translational Sciences (NCATS), 2020).
# About 130 (0.14%) of roughly 91,000 compounds were called active. The shares of active, inactive and inconclusive entries below differ from those in the screen. Calls come from the whole dose curve; as a rule, active = well fitted inhibition curve with a large enough effect; inconclusive = small, poorly fitted or top-dose-only effect; inactive = flat fitted curve, though single readings scatter. Potencies beside an inconclusive call are fits to weak or partial responses and may not hold up.
# Test system: Uracil-DNA glycosylase
# Assay: Primary qHTS assay for inhibitors of Activation Induced Cytidine Deaminase (AID): UDG Counterscreen signal; note: nearly all actives have a fitted effect of over 65% in size
# Conditions: FRET deamination/UDG coupled assay, UDG read, 4 h; activity change, negative = inhibition: at 115 µM (top of the series)
# % is set by controls: 0 for no effect and ±100 for the full control effect; potency is the fitted concentration of half-maximal effect; tags give direction and shape of the fitted curve.
Compound,Potency,"activity change, negative = inhibition"
CCC(CC)C(=O)Nc1ccc2nc(SCC(=O)N3CCc4ccccc43)sc2c1,"inconclusive: 89.1 µM [inhibitor, single point]",
CCOc1ccc(C(=O)Nc2cccc(NC(=O)c3ccc(C(C)(C)C)cc3)c2)cc1Br,"inconclusive: 3.55 µM [inhibitor, partial curve, poor fit]",
CCC1(C)Cc2c(sc3nc(SC)nc(N4CCCCC4)c23)CO1 (stereo not given),,inactive: -2.43%
CCS(=O)(=O)N1CCc2cc(C(=O)CSc3cccc(OC)c3)ccc21,,inactive: -10.8%
CN(Cc1ccccc1)c1ccc(-c2nc(-c3ccccn3)no2)cc1[N+](=O)[O-],"inconclusive: 100 µM [inhibitor, single point]",
CCC(=O)N1c2ccccc2CC1C(=O)NCc1ccccc1Cl (stereo not given),"inconclusive: 89.1 µM [inhibitor, single point]",
COc1cc(C)cc2oc(=O)c(CC(=O)NCCc3ccc(Cl)cc3)c(C)c12,"inconclusive: 100 µM [inhibitor, single point]",
COc1ccc(C2=C(N3CCN(c4cccc(C)c4)C(C)C3)c3ccccc3C2=O)cc1 (stereo not given),"inconclusive: 89.1 µM [inhibitor, single point]",
Cc1ccc(S(=O)(=O)c2nnn3c2nc(NCCc2ccccc2)c2sccc23)cc1,"inconclusive: 89.1 µM [inhibitor, single point]",
CCOc1ccc(NC(=O)CSc2nnc(-c3ccc(OCC)cc3)o2)cc1,"inconclusive: 89.1 µM [inhibitor, single point]",
CCC(=O)Nc1ccc(Cl)c(NC(=O)c2ccc3c(c2)OCO3)c1,"inconclusive: 100 µM [inhibitor, single point]",
COc1cc2c(cc1OC)C(c1ccc(Cl)cc1)N(c1cccc(C#N)c1)C(=O)C2 (stereo not given),"inconclusive: 89.1 µM [inhibitor, partial curve, poor fit]",
COc1ccccc1/C=C/c1onc(C)c1S(=O)(=O)N1CCC(C(=O)N2CCC(C)CC2)CC1,"inconclusive: 100 µM [inhibitor, single point]",
Cc1cccn2c(=O)cc(COc3ccc(NC(=O)C(C)C)cc3)nc12,"inconclusive: 89.1 µM [inhibitor, single point]",
Nc1ccc2oc(-c3ccccc3Br)nc2c1,"inconclusive: 79.4 µM [inhibitor, partial curve, poor fit]",
Cc1ccc(CCNc2nc3ccccc3c3nc(-c4cccnc4)nn23)cc1,"inconclusive: 100 µM [inhibitor, single point]",
COC(=O)c1ccccc1N(C)S(=O)(=O)c1cc2c3c(c1)CC(=O)N3CCC2,"inconclusive: 44.7 µM [inhibitor, partial curve]",
CCOc1ccc(CNC(=O)c2ccc(NC(=O)N3CCSc4ncccc43)cc2)cc1,"inconclusive: 89.1 µM [inhibitor, single point]",
COc1ccc(-c2nc3cc(NC(=O)COc4ccc(C)c(C)c4)ccc3o2)cc1,"inconclusive: 79.4 µM [inhibitor, partial curve, poor fit]",
COc1cc(C2SCCS2)ccc1OC(=O)c1ccc2ncsc2c1,,inactive: -1.1%
CCCCn1nnnc1CSc1nnc(-c2ccccc2)n1-c1ccccc1,,inactive: 0.392%
Cc1ccc(S(=O)(=O)C(CNC(=O)c2ccc(C(F)(F)F)cc2)c2ccco2)cc1 (stereo not given),"inconclusive: 89.1 µM [inhibitor, partial curve, poor fit]",

Compound,Potency,"activity change, negative = inhibition"
O=C(CCN1C(=O)C2C3CC(C(Br)C3Br)C2C1=O)OCC(=O)c1ccc([N+](=O)[O-])cc1 (stereo not given),"inconclusive: 79.4 µM [inhibitor, partial curve, poor fit]",
CC(=O)N1CCc2cc(S(=O)(=O)NC(Cc3ccccc3)C(=O)Nc3ccc(C)cc3C)ccc21 (stereo not given),"inconclusive: 100 µM [inhibitor, single point]",
CCOC(=O)c1cnc2c(C)cc(C)cc2c1Nc1ccccc1OCC,"inconclusive: 89.1 µM [inhibitor, partial curve, poor fit]",
CCN(CC)CCNc1ncnc2c1cnn2-c1cc(Cl)ccc1C,"inconclusive: 79.4 µM [inhibitor, partial curve, poor fit]",
COc1ccc(NC(=O)c2cnc(SC)nc2-c2ccccc2)cc1OC,,inactive: 6.83%
CC1CC(C)(C)Nc2c(O)cccc21 (stereo not given),"inconclusive: 89.1 µM [inhibitor, partial curve, poor fit]",
CC(C)(C)c1ccc(CSc2nc3c(c(=O)[nH]2)CCCC3)cc1,active: 79.4 µM,
O=C(Nc1nnc(SCc2cc(=O)c3ccccc3[nH]2)s1)c1ccccc1,"inconclusive: 35.5 µM [inhibitor, single point]",
CC(C)c1ccc(-c2nc3cc(N)ccc3o2)cc1,"inconclusive: 89.1 µM [inhibitor, single point]",
N#Cc1ccc(F)c(COC(=O)c2ccc(N3CCOCC3)nc2)c1,,inactive: -0.497%
C=CCN(CC=C)C(=O)c1cc(-c2ccc(OC)cc2)nc2ccccc12,,inactive: -6.38%
Nc1c(-c2nc(-c3ccccc3)cs2)c2ccccn2c1C(=O)c1ccc2c(c1)OCO2,"inconclusive: 28.2 µM [inhibitor, partial curve, poor fit]",
Cc1cc(C)c(S(=O)(=O)N2CCN(Cc3nc4ccc(C)cc4o3)CC2)c(C)c1,active: 89.1 µM,
Cc1ccc(S(=O)(=O)c2nnn3c2nc(NCc2cccs2)c2sccc23)cc1C,"inconclusive: 79.4 µM [inhibitor, single point]",
CCOc1ccc(N(CC)S(=O)(=O)N2CCCC(C(=O)NCc3ccc(Cl)cc3)C2)cc1 (stereo not given),"inconclusive: 89.1 µM [inhibitor, single point]",
O=S(=O)(Nc1cccc(-c2ccc(N3CCCCCC3)nn2)c1)c1ccccc1,"inconclusive: 89.1 µM [inhibitor, partial curve, poor fit]",
CCCn1ccc2c(OCC(=O)Nc3ccccc3OCC)cccc2c1=O,"inconclusive: 89.1 µM [inhibitor, single point]",
O=C(Nc1cccc(-c2nc3ncccc3o2)c1)c1cc2ccccc2o1,"inconclusive: 89.1 µM [inhibitor, single point]",
CC(C)c1ccc(NC(c2nnc(-c3ccccc3)o2)c2ccc(F)cc2Cl)cc1 (stereo not given),"inconclusive: 79.4 µM [inhibitor, single point]",
N#C/C(=C/c1ccc(O)cc1)c1nc2ccccc2o1,"inconclusive: 44.7 µM [inhibitor, partial curve]",
CCC(C(=O)N1CCN(c2cc(Cl)ccc2C)CC1)n1nc(C)c2sc3ccccc3c2c1=O (stereo not given),"inconclusive: 89.1 µM [inhibitor, single point]",
CCc1ccc(/C=C(\C#N)C(=O)Nc2sc(C(=O)N(C)C)c(C)c2C#N)s1,,inactive: 6.1%

Compound,Potency,"activity change, negative = inhibition"
Cc1ccccc1N1CC(C(=O)Nc2ccccc2C(=O)N(C)Cc2ccccc2)CC1=O (stereo not given),,inactive: -13.6%
Cc1ccc(-c2nc(S(=O)(=O)c3ccc(Cl)cc3)c(N3CCCCC3)o2)cc1,"inconclusive: 89.1 µM [inhibitor, partial curve, poor fit]",
CC(C)c1nnc(NC(=O)c2nc(SCc3ccc(F)cc3)ncc2Cl)s1,"inconclusive: 89.1 µM [inhibitor, single point]",
O=CNNC(=S)NCc1ccc(Cl)cc1,,inactive: -6.84%
CCOC(=O)c1cc(NC(=O)c2cc(Br)cc(C)c2OC)ccc1N1CCOCC1,,inactive: -4.47%
C[N+]1(Cc2ccccc2)CCN(/C=C/C(=O)C(F)(F)F)CC1,,inactive: -11.7%
Cc1nc(N2CCOCC2)ncc1-c1cc(=O)[nH]c(Nc2cccc(C(F)(F)F)c2)n1,,inactive: -4.58%
CNc1ccc(-c2nc(-c3ccccn3)no2)cc1[N+](=O)[O-],"inconclusive: 89.1 µM [inhibitor, partial curve, poor fit]",
Cc1oc2c(cc(NS(=O)(=O)c3ccc(Br)cc3)c3ccccc32)c1C(=O)OCc1ccccc1,"inconclusive: 89.1 µM [inhibitor, single point]",
COC(=O)c1ccccc1NC(=O)c1cc2ccccn2n1,"inconclusive: 100 µM [inhibitor, single point]",
Cc1c(Cl)cccc1NC(=O)c1cc(-c2cccc(Cl)c2)on1,"inconclusive: 100 µM [inhibitor, single point]",
O=C(Nc1cccc(Br)c1)Nc1nc2c(s1)CCCCCC2,"inconclusive: 100 µM [inhibitor, partial curve, poor fit]",
COc1cccc(CCNC(=O)c2ccc(Cn3c(SCc4ccccc4)nc4cccnc43)cc2)c1,"inconclusive: 79.4 µM [inhibitor, partial curve]",
CCn1c(=O)cc(OCC(=O)N(C)c2ccc(OC)cc2)c2ccccc21,,inactive: -8.07%
Cc1cccc(OC(C)C(=O)Nc2nonc2-c2ccc(Br)cc2)c1C (stereo not given),"inconclusive: 100 µM [inhibitor, partial curve, poor fit]",
CCc1cccc(CC)c1NC(=O)C(Sc1ccccc1)c1ccccc1 (stereo not given),,inactive: -2.5%
C=CCn1c(N)c(C(=O)NCc2ccccc2)c2nc3ccccc3nc21,"inconclusive: 50.1 µM [inhibitor, partial curve, poor fit]",
Cc1ccnc(SCc2nc3cc(NC(=O)c4cccc(Br)c4)ccc3n2C)n1,"inconclusive: 89.1 µM [inhibitor, partial curve]",
O=C(c1ccc(Cl)cc1Cl)C(Br)C(O)C(Cl)(Cl)Cl (stereo not given),,inactive: -1.26%
CCOC(=O)c1c(NC(=O)CCCOc2ccc(Cl)cc2)sc2c1CCC2,"inconclusive: 79.4 µM [inhibitor, partial curve, poor fit]",
CC(NC(=O)CCCNC(=O)C1CC1)c1ccc(C#N)cc1 (stereo not given),,inactive: 7.45%
